The full ranking holds about 110,000 compounds; the median of “z-score” is about -0.1, and the highest 2% start at about 2. This is one part of the list.

The target of the test is Metabotropic glutamate receptor 8 (Rattus norvegicus) (UniProt P70579). The experiment in a line: rat mGluR8 modulators via GIRK flux, primary screen, cell-based, thallium flux, HTS (AID 488969). The conditions noted are these: HEK293 rat mGluR8, GIRK (G protein-gated inwardly rectifying potassium channel) thallium flux, FluoZin2; at 10 µM; stronger effect = higher value; submaximal glutamate (EC20) added with thallium.
UniProt P70579, sequence (P70579 whole entry, looked up): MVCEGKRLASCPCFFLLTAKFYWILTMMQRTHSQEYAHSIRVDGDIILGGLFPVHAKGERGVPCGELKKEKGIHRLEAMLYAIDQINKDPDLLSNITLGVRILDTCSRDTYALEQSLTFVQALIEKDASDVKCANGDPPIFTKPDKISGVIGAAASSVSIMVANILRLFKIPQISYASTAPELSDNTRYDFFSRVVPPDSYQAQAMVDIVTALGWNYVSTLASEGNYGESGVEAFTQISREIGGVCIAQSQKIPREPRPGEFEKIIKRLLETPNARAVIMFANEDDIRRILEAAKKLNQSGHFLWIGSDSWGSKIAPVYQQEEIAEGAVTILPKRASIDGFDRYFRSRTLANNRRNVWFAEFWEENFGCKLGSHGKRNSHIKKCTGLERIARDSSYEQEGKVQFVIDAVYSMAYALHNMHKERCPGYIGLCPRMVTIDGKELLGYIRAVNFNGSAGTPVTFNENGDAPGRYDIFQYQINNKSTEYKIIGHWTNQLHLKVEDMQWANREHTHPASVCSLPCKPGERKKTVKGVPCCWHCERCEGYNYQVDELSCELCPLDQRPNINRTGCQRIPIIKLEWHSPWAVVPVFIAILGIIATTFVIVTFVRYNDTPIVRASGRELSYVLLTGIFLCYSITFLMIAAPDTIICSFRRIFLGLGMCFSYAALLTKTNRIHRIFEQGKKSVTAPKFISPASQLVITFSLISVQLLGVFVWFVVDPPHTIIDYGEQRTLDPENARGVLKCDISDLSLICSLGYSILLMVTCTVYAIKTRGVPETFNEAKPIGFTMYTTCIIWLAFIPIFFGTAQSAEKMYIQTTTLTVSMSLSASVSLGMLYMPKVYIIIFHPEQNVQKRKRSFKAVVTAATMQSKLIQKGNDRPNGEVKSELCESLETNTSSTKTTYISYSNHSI
`O=C(/C=C1\NCC2c3ccccc3CCN2C1=O)c1ccccc1` (stereo not given) came in with a z-score of 0.22.

`COC(=O)c1cccc(-n2c(C)cc(C=O)c2C)c1` yielded a z-score of -0.0226.

`COc1ccc(C2=Nc3cc(C)ccc3OC2)cc1`: the z-score was -0.187.

With `Cc1ccc(NC(=O)c2ccc(S(=O)(=O)N3CCCC3)cc2)cc1`, the z-score was -0.497.

In turn, `O=C(NN=C1c2ccccc2-c2ccccc21)c1ccccn1` registered a z-score of 0.564.

In turn, `O=c1cc(C(Cl)(Cl)Cl)oc2c1ccc1ccccc12` returned a z-score of -0.27.

The molecule `CC1CN(S(=O)(=O)c2ccc(NC(=O)CCCN3C(=O)c4ccccc4C3=O)cc2)CC(C)O1` (stereo not given) had a z-score of -0.131.

For the molecule `CCOC(=O)C(NC=O)(NC(C)(C)C)C(=O)OCC`, the z-score amounted to 0.0436.

For the molecule `O=c1cc(CSc2nnc(-c3ccco3)o2)c2ccccc2[nH]1`, the z-score is -0.31.

Turning to `CCOC(=O)C1=C(C)NC(=O)NC1`, the z-score was -0.302.

Molecule `O=C(CCCO)N/N=C/c1ccccc1[N+](=O)[O-]` displayed a z-score of 0.16.

In the case of `O=C(O)CCC(=O)OCC1CCCCC1`, the z-score is -0.0493.

The molecule `Cc1cc(C)c(NC(=O)c2oc3ccccc3c2COc2ccccc2)c(C)c1` yielded a z-score of -0.0974.

Consider `Cc1cccc(NC(=O)NCC(F)(F)F)n1`, for which the z-score was -0.0151.

The molecule `CC(C)COc1ccc(C2NC(=O)NC2=O)cc1` (stereo not given) returned a z-score of -0.105.

Turning to `O=C(CSc1nnc(Cc2ccccc2)o1)NC1CCCCC1`, the z-score was determined as 0.0927.

For `CCCC(C(=O)O)N1C(=O)/C(=C/c2cccn2C)SC1=S` (stereo not given), the z-score is -0.401.

`CSc1nccc(N2CCN(c3ccc(F)cc3)CC2)n1` gave a z-score of -0.0817.

In turn, `CCN1C(=O)CC(N2CCC(Cc3ccccc3)CC2)C1=O` (stereo not given) gave a z-score of -0.239.

`COc1ccc2[nH]c(=O)c(CNc3ccccc3)cc2c1` displayed a z-score of -0.111.

For `CN(C)S(=O)(=O)c1ccc(N2CCCC2)c(C(=O)Nc2ccc(N3CCOCC3)cc2)c1`, the z-score was 0.271.

`O=C(CSc1ncn[nH]1)NCCOc1ccccc1` yielded a z-score of -0.157.

Consider `Cc1ccc(S(=O)(=O)N2CCN(CC(=O)N/N=C/c3ccc(C)o3)CC2)cc1`, for which the z-score is -0.141.

As to `COC(=O)c1cccc(C(=O)Nc2ccc(F)cc2)n1`, the z-score was -0.32.

With `O=S(=O)(c1ccc(F)cc1)N1CCCC(CO)C1` (stereo not given), the z-score is -0.0413.

Take `CCCCc1c(C)nc2ccc(C(=O)OCC)cc2c1Cl`: the z-score is -0.185.

Molecule `O=C(O)c1ccnc(C(=O)O)c1` came in with a z-score of 0.295.

Regarding `C[N+](C)(C)CCCC(=O)c1ccc2c(c1)OCO2`, the z-score was -0.215.

`COc1ccc(S(=O)(=O)N2CCCCC2)cc1NC(=O)CSc1ncnc2ccccc12` gave a z-score of -1.21.

The molecule `Cc1ccc2cc(C(c3nnnn3C(C)(C)C)N3CCCCCC3)c(=O)[nH]c2c1` (stereo not given) registered a z-score of -1.23.

`COC(=O)N/N=C/c1cc([N+](=O)[O-])cc(Br)c1O` gave a z-score of -0.298.

As for `Clc1ccc(Sc2ccc(/C=N/n3cnnc3)o2)cc1`, the z-score was -0.0826.

In turn, `Cc1ccc(C)c(Oc2nnnn2-c2ccccc2)c1` gave a z-score of -1.56.

Regarding `Cc1occc1C(=O)NNC(=S)Nc1ccccc1`, the z-score is -0.355.

For the molecule `Cc1ccc(-c2noc(CSc3nnc(Cc4ccccc4)n3-c3ccc(Cl)cc3)n2)cc1`, the z-score is -0.159.

Turning to `CCO/N=C(\C)c1c(O)c2ccccc2n(C)c1=O`, the z-score was -0.246.

With `NC(=O)Cn1c(=O)n(CCCC(=O)NC2CCN(Cc3ccccc3)CC2)c(=O)c2ccccc21`, the z-score is -0.00606.

For `O=C1c2ccccc2CC1Sc1nnc(-c2ccncc2)o1` (stereo not given), the z-score is -1.32.

`CCOC(=O)C(=CNc1ccccc1C)C(=O)OCC` displayed a z-score of -1.41.

As for `Nc1c(Cl)cc(NC(=O)c2ccccc2C(=O)O)cc1Br`, the z-score was found to be 0.0673.

The molecule `Cc1ccccc1NC(=S)NCc1cccn1C` returned a z-score of -0.488.

On to `CCOc1ccc(Oc2c(/C=N/NC(N)=O)c(C)nn2-c2ccccc2)cc1`, for which the z-score is 0.235.

For `COc1ccc(O)c(C(=O)c2cnc3onc(C(C)C)c3c2)c1`, the z-score worked out at 0.111.

In the case of `O=C(Oc1cccc([N+](=O)[O-])c1)c1cc(-c2ccccc2)nc2ccccc12`, the z-score was 0.17.

Consider `O=C(c1ccc(Nc2cccc(C(F)(F)F)c2)nc1)N1CCCC1`, for which the z-score was -0.0582.

Consider `CCOc1ccc(NC(=O)/C=C/c2ccc(OC)cc2)c([N+](=O)[O-])c1`, for which the z-score was -0.515.

Molecule `Cc1cc(NC(=O)c2ccc(Br)c(S(=O)(=O)N3CCCC3)c2)no1` gave a z-score of -0.32.

For the molecule `CC1c2c([nH]c3ccccc23)CCC1C(=O)O` (stereo not given), the z-score was found to be 0.673.

`O=C(COC(=O)C1Cc2ccccc2CN1C(=O)c1ccccc1Cl)Nc1ccc(N2CCOCC2)cc1` (stereo not given) registered a z-score of -1.35.

In turn, `COc1ccc(-c2nnn(CCc3nn[nH]n3)n2)cc1OC` displayed a z-score of 0.508.

`O=C(CSc1nc2c(cnn2-c2ccc(F)cc2)c(=O)[nH]1)N1CCCCC1` gave a z-score of 0.533.

In turn, `COc1ccc(Cl)cc1NC(=O)CN1CCC(n2nnc3cc(C)ccc32)CC1` came in with a z-score of -0.93.

Take `CC(C)Cc1nc2oc3c(Cl)ncnc3c2c2c1CCC2`: the z-score was -0.937.

In turn, `CC(C)OC(=O)CC(=O)CSc1nc2c(cc1C#N)CCC2` yielded a z-score of -0.321.

In turn, `O=C(N/N=C/c1ccc(OCC(=O)N2CCCCC2)cc1)c1ccccc1` gave a z-score of -0.172.

Take `CCNC(=S)NCCN1CCCCC1`: the z-score was -0.0769.

Take `O=C(NCCN1CCCC1=O)Nc1ccccc1`: the z-score was -0.197.

As to `CNc1nc(N/N=C/c2ccc([N+](=O)[O-])cc2)nc(Nc2ccccc2)n1`, the z-score is -0.339.

With `CCC(C)NS(=O)(=O)c1ccc(OCC(=O)NCc2ccco2)cc1` (stereo not given), the z-score is -0.116.

With `CCOC(=O)c1[nH]c(C)c(C(=O)Nc2cc(OC)ccc2OC)c1C`, the z-score is -0.101.

Molecule `CC(C)c1cc(C(=O)Nc2cccc(Cl)c2)no1` came in with a z-score of 0.246.

With `C=CCn1c(-c2cccc(OC)c2)nc2nc3ccccc3nc21`, the z-score is -0.795.

`Cc1cccc(C)c1NC(=O)C1(NC(=O)C2CCCN2C(=O)OC(C)(C)C)CCCCC1` (stereo not given) yielded a z-score of -0.0399.

As for `O=S(=O)(c1cccc(C(F)(F)F)c1)N1CCN(c2ccccc2)CC1`, the z-score is -0.199.

The molecule `COC(=O)c1cc(=O)n(CCc2ccc(OC)c(OC)c2)c(=Nc2ccc(F)c(Cl)c2)s1` displayed a z-score of 0.363.

`O=[N+]([O-])c1cc(/C=N/O)ccc1SCc1ccccc1` registered a z-score of -0.179.

On to `COc1ccc(CNC(=O)/C=C/c2cc([N+](=O)[O-])ccc2OC(F)F)cc1OC`, for which the z-score is 0.482.

For `COc1cc(C(=O)NC(=S)Nc2ccc(Cl)c(C(=O)O)c2)cc(OC)c1OC`, the z-score is -0.211.

In turn, `CCCn1c(=N)n(CC(=O)O)c2ccccc21` showed a z-score of 0.834.

Turning to `COc1cc(-c2nc3cnccc3n2C)cc(OC)c1OC`, the z-score is -0.268.

As for `CN(C)Cc1cnc2ccc(Cl)cn12`, the z-score was 0.0546.

For `COc1cccc(OCCn2cc(C(=O)c3ccco3)c3ccccc32)c1`, the z-score was -0.473.

For `COC(=O)Cc1ccc(NC(=S)N2CCN(c3ccc(F)cc3)CC2)cc1`, the z-score was -0.586.

For the molecule `Cc1ccc(NC(=S)NN2CCN(C)CC2)c(C)c1`, the z-score was -0.222.

Molecule `O=C(O)c1cccnc1SC1CC(=O)N(Cc2ccccc2)C1=O` (stereo not given) had a z-score of -0.166.

Consider `CC(=O)N1CCc2cc(S(=O)(=O)NC(Cc3ccccc3)C(=O)Nc3cc(C)ccn3)ccc21` (stereo not given), for which the z-score was -0.845.

For `Cc1cc2nc(C)n(CCCNC(=O)Nc3ccc(F)cc3)c2cc1C`, the z-score was -0.19.

Molecule `CCOC(=O)c1c(NC(=S)NC(=O)c2ccco2)sc2c1CCCC2` came in with a z-score of 0.218.

`CCN(C(=O)Cc1c(C(=O)O)[nH]c2ccccc12)c1cc(OC)ccc1OC`: the z-score is -0.314.

In the case of `CC(=O)Nc1ccc(S(=O)(=O)Nc2nc3ccccc3nc2N2CCCCCC2)cc1`, the z-score is -0.103.

On to `CC(Cc1cccs1)NC(=S)Nc1ccccc1` (stereo not given), for which the z-score is -0.124.

As to `CCCCC1CCC(C(=O)Nc2ccccc2)CC1` (stereo not given), the z-score is -0.237.

With `O=C(O)C1CC(=O)N(Cc2ccccc2)C1` (stereo not given), the z-score is 0.17.

Regarding `O=C(CCN1C(=O)C2C3C=CC(C3)C2C1=O)Nc1c(F)cc(F)cc1Br` (stereo not given), the z-score was -0.082.

`CCOc1ccc(S(=O)(=O)n2c(C)nc3ccccc32)cc1` yielded a z-score of -0.639.

In the case of `COC(=O)C(Cc1c[nH]c2ccccc12)NC(=O)c1cc(-c2ccc(OC)c(OC)c2)oc1C` (stereo not given), the z-score is -0.0544.

`COc1cc(NS(=O)(=O)c2ccc(NC(C)=O)cc2)nc(OC)n1`: the z-score is 0.152.

`S=c1[nH]nc(Cc2cccs2)n1-c1cccc2ccccc12` displayed a z-score of 0.0708.

As to `COc1ccccc1NC(=S)NNC(=O)c1ccccc1Br`, the z-score is -0.0206.

Regarding `O=C(Nc1cccc(C(F)(F)F)c1)c1cnc2n(c1=O)CCS2`, the z-score worked out at 0.0706.

For `Cc1ccc(-c2cc(C(=O)Nc3ccc(S(=O)(=O)Nc4cc(C)on4)cc3)c3ccccc3n2)c(C)c1`, the z-score was -0.0128.

`COc1ccc(N/N=C2/CCCCC2=O)cc1` gave a z-score of 0.302.

Molecule `CCCCCCC1CC(C)(C(=O)CNc2nncs2)OC1=O` (stereo not given) displayed a z-score of -0.244.

`O=C(CC12CC3CC(CC(C3)C1)C2)N1CCOCC1`: the z-score stood at 0.275.

`Cc1ccc(N=C2N=C(N)c3ccccc32)c(C)c1` yielded a z-score of -0.146.

`Cc1c(N)c(C(C)(C)C)cc(C(C)(C)C)c1[N+](=O)[O-]` displayed a z-score of -0.325.

Regarding `NC(N)=N/N=C/c1ccc(OCc2ccccc2Cl)cc1`, the z-score is 0.258.

In turn, `Cc1ccc(SCCNC(=O)CN(c2ccc3c(c2)OCO3)S(C)(=O)=O)cc1` came in with a z-score of 1.96.

In turn, `Cc1ccn2c(C(=O)N/N=C\c3ccccc3[N+](=O)[O-])c(C)nc2c1` registered a z-score of -0.0577.

`C=CCn1c(COc2cccc(C)c2)nnc1SCC(=O)c1c[nH]c2c(CC)cccc12` registered a z-score of 0.643.

The molecule `NC(=O)c1ccsc1NC(=O)CSc1nc2ccccc2c(=O)n1CCCO` showed a z-score of -0.109.

Consider `Cc1ccc(C(=O)c2ccccc2C(=O)OCC(=O)Nc2cccc([N+](=O)[O-])c2)cc1`, for which the z-score is -0.147.

Turning to `C/C(=N\OC(=O)c1ccc(OC(C)C)cc1)c1ccc(C)c(C)c1`, the z-score is -0.319.

The molecule `COC(=O)c1sc2ccccc2c1-n1cccc1C(=O)C(=O)Nc1ccccc1` registered a z-score of 0.309.

As for `COc1ccc(C2C(C#N)=C(N)Nc3onc(C(C)(C)C)c32)c(OC)c1` (stereo not given), the z-score was -0.0893.

On to `CNC(=O)c1[nH]cnc1C(=O)Nc1ccc(C)cc1`, for which the z-score was determined as 1.33.

The molecule `O=C1CC(SCCO)C(=O)N1c1ccc(Oc2ccccc2)cc1` (stereo not given) yielded a z-score of -0.0704.

`CCCN(CC1COc2ccccc2O1)C(=S)Nc1ccc(C)cc1` (stereo not given) displayed a z-score of -0.0374.

In the case of `CC(Sc1nnc(Cc2ccc([N+](=O)[O-])cc2)o1)C(N)=O` (stereo not given), the z-score is -0.0336.

On to `CNC(=O)c1nn(-c2ccccc2)ccc1=O`, for which the z-score is -0.00144.

`CCn1c(CSc2nc(C)cs2)nc2cc(S(=O)(=O)N(C)C)ccc21` displayed a z-score of 0.284.

For `c1ccc2c(-c3c[nH]c4ccccc34)c3ccccc3nc2c1`, the z-score worked out at 0.574.

`COCC(C)Nc1ncnc2c1cnn2-c1ccc(Cl)cc1` (stereo not given) displayed a z-score of -0.168.

`O=C(NC(Nc1nc2ccccc2s1)(C(F)(F)F)C(F)(F)F)c1ccccc1`: the z-score was -0.124.

Turning to `CN1/C(=C/C2CC(=O)NC2=O)C(C)(C)c2ccccc21` (stereo not given), the z-score is 0.257.

Values taken from PubChem BioAssay AID488969 (Vanderbilt High Throughput Screening Facility, 2010).
